# Values joined by “and” are separate entries in the source; they are usually repeats but may differ in a detail not shown here. Equal values may be shown once. Hit rate of the full screen: of about 370,000 compounds, about 150 (0.041%) were called active. This list was built around the results that the source calls inconclusive (neither active nor inactive); the mix of calls is not that of the screen. Calls come from the whole dose curve; as a rule, active = well fitted inhibition curve with a large enough effect; inconclusive = small, poorly fitted or top-dose-only effect; inactive = flat fitted curve, though single readings scatter. A potency beside an inconclusive call is a rough fit, not a confirmed value.
# Molecular target: Beta-lactamase (Escherichia coli (strain K12)) (UniProt P00811)
# Sequence of UniProt P00811 (P00811 whole entry, looked up): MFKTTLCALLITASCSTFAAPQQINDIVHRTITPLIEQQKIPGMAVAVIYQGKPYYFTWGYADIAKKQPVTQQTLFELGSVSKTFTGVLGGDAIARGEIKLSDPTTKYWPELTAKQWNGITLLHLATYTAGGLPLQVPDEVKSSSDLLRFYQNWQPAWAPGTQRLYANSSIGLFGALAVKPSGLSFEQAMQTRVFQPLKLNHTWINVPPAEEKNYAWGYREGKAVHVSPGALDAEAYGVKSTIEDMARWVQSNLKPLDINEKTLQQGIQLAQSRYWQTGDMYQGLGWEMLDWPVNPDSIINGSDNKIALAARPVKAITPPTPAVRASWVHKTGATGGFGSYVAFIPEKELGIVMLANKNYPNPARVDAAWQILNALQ
# Assay: qHTS Inhibitors of AmpC Beta-Lactamase (assay with detergent); note: nearly all actives have a fitted effect of over 25% in size
# Conditions: AmpC hydrolysis of nitrocefin, absorbance 480 nm, 0.01% Triton; series mostly up to 114 µM
# Outline: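 AmpC (5.3 nM in the dispensed reagent) in 20 mM phosphate pH 7.0 with 0.01% (detergent screen) or 0.0001% Triton X-100 was preincubated with compounds for 15 min at room temperature. Nitrocefin was then added from an 800 uM solution, and hydrolysis was followed at 480 nm.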
# Potency is the fitted concentration of half-maximal effect; tags give direction and shape of the fitted curve.
row,SMILES,Potency
1,Cc1c(O)ccc2c(CN3CCN(CCO)CC3)cc(=O)oc12,"inconclusive: 0.316 µM [inhibitor, full curve, poor fit]"
2,O=[N+]([O-])c1cccc(S(=O)(=O)N2CCN(S(=O)(=O)N3CCCCCC3)CC2)c1,"inconclusive: 2.82 µM [inhibitor, full curve, poor fit]"
3,CN(CC(=O)NCc1cccnc1)S(=O)(=O)c1cc(Cl)ccc1Cl,"inconclusive: 0.631 µM [inhibitor, full curve, poor fit]"
4,CCOC(=O)c1c(-c2ccc(OC)cc2)csc1NC(=O)COc1ccc2c(C)cc(=O)oc2c1,"inconclusive: 79.4 µM [inhibitor, single point]"
5,O=C(NC1CCCCC1)c1cc(-c2ccc(F)cc2)on1,"inconclusive: 15.8 µM [inhibitor, full curve]"
6,OCc1cccc(Nc2ncnc3sc4c(c23)CCCCC4)c1,inactive
7,Oc1ccc(Cc2ncc(C(F)(F)F)cc2Cl)cc1,"inconclusive: 0.631 µM [inhibitor, full curve, poor fit]"
8,O=C(Nc1cccnc1)NC1CCCCC1,"inconclusive: 0.708 µM [inhibitor, full curve]"
9,CCCCN(C)C(=O)c1ccc2c(c1)N(Cc1ccc(F)cc1)C(=O)c1ccccc1S2(=O)=O,inactive
10,CC(C)C(=O)NC(c1cccc([N+](=O)[O-])c1)c1ccc2cccnc2c1O (centres undefined),"inconclusive: 0.562 µM [inhibitor, full curve, poor fit]"
11,Cc1ccccc1NCN1C(=O)C2C3C=CC(C3)C2C1=O (centres undefined),"inconclusive: 1.12 µM [inhibitor, full curve, poor fit]"
12,C=C(C)Cn1c(=O)c2c(nc3n2CC(C)CN3Cc2ccccc2)n(C)c1=O (centres undefined),inactive
13,COc1ccc(Cl)cc1NC(=O)C1CCCO1 (centres undefined),"inconclusive: 2 µM [inhibitor, full curve, poor fit]"
14,COc1ccc(N=c2cc(-c3ccc(OC)cc3)oc3ccccc23)cc1,"inconclusive: 6.31 µM [inhibitor, full curve, poor fit]"
15,O=C(Nc1ccc(Cl)cn1)c1cccc(F)c1,"inconclusive: 17.8 µM [inhibitor, partial curve, poor fit]"
16,COc1cc2[nH]c(C(=O)N3CCC(Cc4ccccc4)CC3)cc2c(OC)c1OC,inactive
17,CN1CCN(c2ccccc2NC(=O)c2sc3ccccc3c2Cl)CC1,"inconclusive: 44.7 µM [inhibitor, partial curve]"
18,COc1ccc(CN(C(=O)CN2C(=O)COc3ccccc32)C2CCCC2)c(OC)c1,"inconclusive: 100 µM [inhibitor, single point]"
19,O=C(Cn1ncc2c1-c1ccccc1OC2)N1CCN(c2ccccn2)CC1,inactive
20,Cc1ccc(S(=O)(=O)N2CCCOC2CNC(=O)C(=O)NCCc2c[nH]c3ccccc23)cc1 (centres undefined),"inconclusive: 39.8 µM [inhibitor, single point]"
21,CC(NC(=O)CCC(=O)NC(C)c1ccccc1)c1ccccc1 (centres undefined),"inconclusive: 2.82 µM [inhibitor, full curve]"
22,Cc1cc(C)cc(OCc2cc(=O)n3c4c(sc3n2)CCCC4)c1,inactive

row,SMILES,Potency
1,COCCN(C(=O)COC(=O)c1cc(C)n(-c2ccccc2)c1C)c1c(N)n(Cc2ccccc2)c(=O)[nH]c1=O,"inconclusive: 44.7 µM [inhibitor, partial curve, poor fit]"
2,CCCCCOc1ccc(N2C(=O)C3C4C=CC(C3C2=O)N(C)C4=O)cc1 (centres undefined),"inconclusive: 56.2 µM [inhibitor, partial curve]"
3,CCC(=O)C1CCCN(C(=O)CCc2nnc(-c3ccc4c(c3)OCO4)o2)C1 (centres undefined),inactive
4,COc1ccccc1-c1ccc(SCc2ccccc2)nn1,"inconclusive: 14.1 µM [inhibitor, partial curve]"
5,O=c1c2c3c(sc2nc2n1CCCC2)CCCC3,"inconclusive: 2.51 µM [inhibitor, partial curve, poor fit]"
6,CSc1nnc(-c2ccccc2)c(=O)[nH]1,"inconclusive: 50.1 µM [inhibitor, partial curve, poor fit]"
7,CCCCC(=O)Nc1c(C(=O)N2CCN(c3ccccc3)CC2)oc2ccccc12,inactive
8,CCOC(=O)CCC(NC(=O)CCCCC(=O)NC(CCC(=O)OCC)C(=O)OCC)C(=O)OCC (centres undefined),"inconclusive: 56.2 µM [inhibitor, partial curve, poor fit]"
9,On1cnnc1-c1ccccc1,"inconclusive: 35.5 µM [inhibitor, partial curve, poor fit]"
10,CCOC(=O)c1ccc(NC(=O)C2(c3ccc(OC)cc3)CCOCC2)cc1,"inconclusive: 8.91 µM [inhibitor, full curve]"
11,O=Cc1c(NCCc2ccc(F)cc2)c2ccccc2[nH]c1=O,"inconclusive: 7.08 µM [inhibitor, partial curve]"
12,CC(C)CC(=O)Nc1cccc(C(=O)Nc2ccccc2C(=O)O)c1,"inconclusive: 15.8 µM [inhibitor, single point]"
13,Nc1ccc(Br)cc1-c1nc2ccccc2[nH]c1=O,"inconclusive: 89.1 µM [inhibitor, single point]"
14,CCN(C(=O)/C=C/c1ccc(OC)cc1)C1CCS(=O)(=O)C1 (centres undefined),"inconclusive: 2 µM [inhibitor, partial curve, poor fit]"
15,CCC(C)(C)NC(=O)CN(C(=O)c1ccc(N2CCCC2)nc1)c1ccc(F)cc1,"inconclusive: 2.82 µM [inhibitor, full curve, poor fit]"
16,COc1ccc(NC(=O)CCN2CCN(S(=O)(=O)c3cc(Cl)ccc3OC)CC2)cc1,inactive
17,CCCCN(Cc1ccccc1)S(=O)(=O)c1cc(Br)cc2c1N(C(C)=O)CC2,"inconclusive: 1 µM [inhibitor, full curve, poor fit]"
18,CSc1cccc(NC(=O)CN(C)S(=O)(=O)c2cnc[nH]2)c1,inactive
19,COc1ccc(CN2C(=O)c3cccnc3C2=O)cc1S(=O)(=O)N1CCCCC1,"inconclusive: 0.708 µM [inhibitor, full curve, poor fit]"
20,CCOC(=O)C1(CCOc2ccccc2)CCN(Cc2cc(OC)ccc2OC)CC1,"inconclusive: 35.5 µM [inhibitor, full curve, poor fit]"
21,COc1ccc(C(=O)COc2ccc(F)cc2)c(O)c1,inactive
22,Cc1nc(CSc2ccccc2)cc(=O)[nH]1,"inconclusive: 0.631 µM [inhibitor, full curve, poor fit]"

row,SMILES,Potency
1,NC(=O)CCN1CCN(C(=O)c2ccc3nc(Cc4cccc(Cl)c4)oc3c2)CC1,"inconclusive: 28.2 µM [inhibitor, partial curve, poor fit]"
2,Nc1nc(F)nc2c1ncn2[C@@H]1O[C@H](CO)[C@@H](O)[C@@H]1O,"inconclusive: 112 µM [inhibitor, partial curve, poor fit]"
3,O=C(Nc1ccccc1)c1ccc2ccccc2n1,inactive
4,COc1ccc(-n2c(N)c(C(=O)NCc3ccco3)c3nc4ccccc4nc32)cc1,inactive
5,O=C(NCCS(=O)(=O)N1CCN(c2ccccc2F)CC1)C1CC(=O)N(c2ccccc2)C1 (centres undefined),"inconclusive: 7.94 µM [inhibitor, full curve, poor fit]"
6,Cc1ccc(-n2c(C)cc(/C=N/NC(=O)CN(c3ccc(C)cc3C)S(C)(=O)=O)c2C)cc1,"inconclusive: 1 µM [inhibitor, full curve, poor fit]"
7,CCCCn1c(N)c(N(CC(C)C)C(=O)c2cccc(S(=O)(=O)N3CCCCCC3)c2)c(=O)[nH]c1=O,"inconclusive: 1.41 µM [inhibitor, full curve]"
8,Cc1c(OCC(F)(F)F)ccnc1CS(=O)c1nc2ccccc2[nH]1 (centres undefined),"inactive and inconclusive: 89.1 µM [inhibitor, single point]"
9,Cn1c(CN2CCOCC2)nnc1SCC(=O)NC1CCCCC1,"inconclusive: 50.1 µM [inhibitor, partial curve, poor fit]"
10,COc1ccc(S(=O)(=O)NCCc2sc3nc(-c4ccc(C)cc4)nn3c2C)cc1F,inactive
11,COc1cc(Cl)ccc1OCc1cc(C(=O)N[C@H]2CCCCNC2=O)no1,"inconclusive: 100 µM [inhibitor, partial curve, poor fit]"
12,O=C(Nc1ccc2[nH]ncc2c1)c1cccc(F)c1,"inconclusive: 89.1 µM [inhibitor, single point]"
13,COC(=O)c1cc2ccsc2n1Cc1nc(-c2ccc(OC)cc2)oc1C,"inconclusive: 50.1 µM [inhibitor, partial curve, poor fit]"
14,COc1ccc(N2C(=O)CC(N3CCN(c4ccc(S(C)(=O)=O)cc4)CC3)C2=O)cc1 (centres undefined),"inconclusive: 56.2 µM [inhibitor, full curve, poor fit]"
15,O=C(NCc1cc(C(F)(F)F)ccc1F)C1CCC(=O)N(C2CC2)C1 (centres undefined),"inconclusive: 2.82 µM [inhibitor, full curve, poor fit]"
16,CC(C)Nc1nc(Cl)nc(NC2CCCCC2)n1,"inconclusive: 12.6 µM [inhibitor, full curve, poor fit]"
17,COc1ccc(NC(=O)CSc2nccn2-c2ccccc2)c(OC)c1,"inconclusive: 44.7 µM [inhibitor, partial curve, poor fit]"
18,CC1(C)Cc2c(ccc3ccccc23)/C(=C/C#N)N1,inactive
19,CCOc1ccc(NC(=O)c2cc(C)nc3c2c(C)nn3-c2cccc(F)c2)cc1,inactive
20,COc1ccc(C2C(C(=O)N3CCOCC3)=C(C)NC3=C2C(=O)CC(C)(C)C3)c(OC)c1 (centres undefined),"inconclusive: 15.8 µM [inhibitor, full curve, poor fit]"

# Reference: PubChem BioAssay AID485294 (National Center for Advancing Translational Sciences (NCATS), 2010)
